In PubChem BioAssay AID624296 (National Center for Advancing Translational Sciences (NCATS), 2012):
Hit rate of the full screen: of about 350,000 compounds, about 9,900 (2.8%) were called active. Inconclusive results, whose numbers are uncertain, are shown with a selection of clear calls. Calls follow the shape of the dose curve; as a rule, active = well fitted activation curve with a large enough effect; inconclusive = small, poorly fitted or top-dose-only effect; inactive = no such curve, though single readings can be large or run the other way. Potencies of inconclusive entries are left out as doubtful fits.

test: A quantitative high throughput screen for small molecules that induce DNA re-replication in MCF 10a normal breast cells.; also: nearly all actives have a fitted effect of over 50% in size; as to activity, positive = re-replication: % of control where 0% means no effect; conditions: MCF 10A DNA re-replication, Hoechst nuclear intensity, 48 h; activity, positive = re-replication: at 46.1 µM (top of the series)
Potency is read from the fitted curve at half-maximal effect; tags tell the direction and shape of the fitted curve.

Question: With CCOc1ccc2nc(N3C(=O)CNC3=S)sc2c1 as the molecule, how does the Potency read?
Answer: inconclusive [activator, single point]

Question: For Cn1c(C(=O)N2CCN(c3ccc([N+](=O)[O-])cc3)CC2)cc2c(=O)[nH]c3ccccc3c21, which Potency is on record?
Answer: inconclusive [activator, single point]

Question: Which Potency does the source give for CN1CCN(c2ccc(C(=O)c3ccc(F)cc3)cc2)CC1 here?
Answer: inconclusive [activator, full curve]

Question: For COc1ccccc1CNC(=O)COC(=O)[C@H](Cc1c[nH]c2ccccc12)NC(=O)c1cccs1, which Potency is on record?
Answer: inconclusive [activator, single point]

Question: Which Potency does the source give for CCOc1cc(/C=C/C(=O)c2ccc(C)cc2)ccc1OCC(=O)N(C)C here?
Answer: active: 23.1 µM

Question: With CN=C1S/C(=C\c2cc(C)n(-c3ccccc3F)c2C)C(=O)N1C as the molecule, how does the Potency read?
Answer: active: 20.6 µM

Question: Which Potency does the source give for CC(SCc1ccccc1)C(=O)N/N=C/c1cc2c(cc1Br)OCO2 (centres undefined) here?
Answer: inconclusive [activator, partial curve, poor fit]

Question: Which “activity, positive = re-replication” value does the source give for O=C1N[C@@H](Cc2ccccc2)COC(=O)[C@@H](Cc2ccc(F)cc2)CC/C=C/C[C@@H]1CC(=O)N(CCO)Cc1ccccc1 here?
Answer: inactive: 20.1%

Question: For CCCc1nc2oc3c(NCCCN(C)C)ncnc3c2c2c1CCCC2, which Potency is on record?
Answer: active: 14.6 µM

Question: With COc1ccc(N2CCN(S(=O)(=O)CCNC(=O)C34CC5CC(CC(C5)C3)C4)CC2)cc1 as the molecule, how does the Potency read?
Answer: inconclusive [activator, full curve, poor fit]

Question: For O=C(Oc1ccc2cc(Br)ccc2c1)c1cccnc1, which Potency is on record?
Answer: inconclusive [activator, single point]

Question: With COCCNC(=O)c1cc2nc3c(c(C(F)(F)F)n2n1)CCc1ccccc1-3 as the molecule, how does the Potency read?
Answer: inconclusive [activator, single point]

Question: For COc1ccc(CCNC(=O)c2cc3c(=O)n4cccc(C)c4nc3n(CCCN3CCOCC3)c2=N)cc1, which Potency is on record?
Answer: inconclusive [activator, partial curve, poor fit]

Question: For CCOC(=O)C1(C(F)(F)F)N=C(C(F)(F)F)Nc2ccc(F)cc21 (centres undefined), which “activity, positive = re-replication” value is on record?
Answer: inactive: -1.88%

Question: With Clc1ccc(Nc2ncn[nH]2)c(Cl)c1 as the molecule, how does the “activity, positive = re-replication” value read?
Answer: inactive: 29.5%

Question: For O=C(Nc1ccccc1)N(Cc1cccs1)C1CCCC1, which Potency is on record?
Answer: inconclusive [activator, partial curve, poor fit]

Question: Which Potency does the source give for CC[N+]1(CC)CC2=Cc3c(ccc4ccccc34)C(C)C2C1 (centres undefined) here?
Answer: inconclusive [activator, single point]

Question: With CCOC(=O)c1c(NC(=O)CSc2nc3ccc(OC)cc3[nH]2)sc2c1CC(C)(C)NC2(C)C as the molecule, how does the Potency read?
Answer: inconclusive [activator, single point]

Question: With N#CC(c1ccccn1)c1ncc(C(F)(F)F)cc1Cl (centres undefined) as the molecule, how does the “activity, positive = re-replication” value read?
Answer: inactive: 2.14%

Question: With CC12CS(=O)(=O)CC1SC(=S)N2Cc1ccccc1 (centres undefined) as the molecule, how does the “activity, positive = re-replication” value read?
Answer: inactive: -1.49%

Question: Which “activity, positive = re-replication” value does the source give for CCC1Sc2ccccc2N(CC(=O)NCCC(C)C)C1=O (centres undefined) here?
Answer: inactive: -2.2%

Question: With Cc1ccc(Nc2nc(N)nc(CCl)n2)c(C)c1 as the molecule, how does the Potency read?
Answer: inconclusive [activator, single point]

Question: For O=C(Nc1cccc(F)c1)C1CCN(c2nnnn2-c2ccccc2)CC1, which Potency is on record?
Answer: inconclusive [activator, single point]

Question: With CCn1ccnc1CN(C)Cc1cn(-c2ccc(C)cc2)nc1-c1ccc(F)cc1 as the molecule, how does the “activity, positive = re-replication” value read?
Answer: inactive: 3.47%

Question: With CC(C)c1ccc(OCc2ccc(C(=O)N3CCCC3)o2)cc1 as the molecule, how does the Potency read?
Answer: inconclusive [activator, partial curve, poor fit]

Question: For CCOc1ccc(NS(=O)(=O)c2ccc3[nH]c(=O)c(=O)[nH]c3c2)cc1, which “activity, positive = re-replication” value is on record?
Answer: inactive: 9.4%

Question: With O=C(NC1=NCCS1)C12CC3CC(CC(C3)C1)C2 as the molecule, how does the Potency read?
Answer: inconclusive [activator, single point]

Question: With C=CCOc1ccccc1CN1CCCC(CCC(=O)N(C)CCc2ccccn2)C1 (centres undefined) as the molecule, how does the Potency read?
Answer: inconclusive [activator, single point]

Question: Which Potency does the source give for CC(=O)Nc1ccc(NC(=O)C(C)OC(=O)c2cc(S(=O)(=O)N(C)C)ccc2N2CCCC2)cc1 (centres undefined) here?
Answer: inconclusive [activator, full curve, poor fit]

Question: For CCCN(CCC)CCCNC(=O)c1cc2c(=O)n(C)c3ccccc3c2n1C, which Potency is on record?
Answer: inconclusive [activator, partial curve, poor fit]

Question: For Cc1ccc(-c2noc(CSc3nnc(Cc4ccccc4)n3-c3cccc(C)c3)n2)cc1, which Potency is on record?
Answer: active: 18.4 µM

Question: For COC(=O)CCc1sc(Nc2ccccc2)nc1-c1ccc(OC)cc1, which Potency is on record?
Answer: inconclusive [activator, partial curve, poor fit]

Question: Which Potency does the source give for O=C(Nc1ccc(F)cc1F)c1c(C(F)(F)F)ccnc1Oc1cccc(C(F)(F)F)c1 here?
Answer: inconclusive [activator, full curve, poor fit]

Question: For Cc1ccc(-c2nsc3c(N4CCC(C(N)=O)CC4)ncnc23)cc1, which “activity, positive = re-replication” value is on record?
Answer: inactive: 15.5%

Question: For CC(=O)c1ccc(N/N=C(/C(N)=O)C2=NC(C)(C)Cc3ccccc32)cc1, which Potency is on record?
Answer: inconclusive [activator, partial curve]

Question: For Cc1c2ccncc2cc2c1[nH]c1ccccc12, which Potency is on record?
Answer: active: 16.4 µM

Question: With CCOC(=O)C(=CNc1ccc(Oc2cncc(Cl)c2)nc1)C(=O)OCC as the molecule, how does the Potency read?
Answer: inconclusive [activator, single point]

Question: Which “activity, positive = re-replication” value does the source give for COc1ccc(N2CCN(CCCNC(=O)Cn3c(=O)c4cccn4c4ccccc43)CC2)cc1 here?
Answer: inactive: -0.25%

Question: For CN1CCc2c(sc(NC(=O)C3CCCN3S(=O)(=O)c3ccc(Cl)s3)c2C(N)=O)C1 (centres undefined), which Potency is on record?
Answer: inconclusive [activator, partial curve, poor fit]

Question: For Cc1cc(C(F)(F)F)n(-c2nc(C(=O)NNS(=O)(=O)c3ccccc3[N+](=O)[O-])cs2)n1, which Potency is on record?
Answer: inconclusive [activator, partial curve, poor fit]

Question: Which Potency does the source give for Cn1cnc([N+](=O)[O-])c1Sc1nnc(-c2cccnc2)n1C here?
Answer: inconclusive [activator, single point]

Question: For Cc1ccc2c(c1)N=C(c1ccccc1)CC(C(Cl)Cl)=N2, which Potency is on record?
Answer: inconclusive [activator, partial curve, poor fit]

Question: With Cn1ncc2cc(NC(N)=S)ccc21 as the molecule, how does the “activity, positive = re-replication” value read?
Answer: inactive: -3.56%

Question: With CCOc1cc(NC(=S)NCCc2ccccc2)c(OCC)cc1NC(C)=O as the molecule, how does the “activity, positive = re-replication” value read?
Answer: inactive: 4.88%

Question: For COc1ccc(C#Cc2c(-c3ccc(OC)cc3)oc3ccc(-c4ccc(OC)cc4)cc23)cc1, which “activity, positive = re-replication” value is on record?
Answer: inactive: 2.8%

Question: Which “activity, positive = re-replication” value does the source give for O=[N+]([O-])c1cc(C(F)(F)F)ccc1NC1CCN(Cc2ccccc2)C1 (centres undefined) here?
Answer: inactive: 6.12%

Question: With CN(C)S(=O)(=O)c1ccc2[nH]cc(/C=C/c3nc4ccccc4c(=O)n3-c3ccccc3)c2c1 as the molecule, how does the Potency read?
Answer: inconclusive [activator, full curve, poor fit]

Question: Which “activity, positive = re-replication” value does the source give for CN1/C(=C/C=N/n2cnnc2)C(C)(C)c2ccccc21 here?
Answer: inactive: -6.3%

Question: Which “activity, positive = re-replication” value does the source give for N#Cc1ccc(CN2CCN(C(=O)CN3C(=O)NC4(CCCC4)C3=O)CC2)cc1 here?
Answer: inactive: 9.35%

Question: With Cc1cc(Cl)c(OCCOCCN2CCC(C)CC2)c(Br)c1 as the molecule, how does the Potency read?
Answer: inconclusive [activator, partial curve]

Question: With COc1ccc(/C=N/NC(=O)C(Cc2c[nH]c3ccccc23)NC(=O)OCC(C)C)cc1[N+](=O)[O-] (centres undefined) as the molecule, how does the “activity, positive = re-replication” value read?
Answer: inactive: 15.6%

Question: For CCCCn1c2ccc(F)cc2c2nnc(NN)nc21, which Potency is on record?
Answer: active: 0.651 µM

Question: With O=c1[nH]nc(N/N=C/c2ccccc2OC(F)F)c(=O)[nH]1 as the molecule, how does the Potency read?
Answer: inconclusive [activator, single point]

Question: With O=c1[nH]c2cc3c(cc2cc1CN(Cc1cccs1)Cc1nnnn1Cc1ccco1)OCCO3 as the molecule, how does the Potency read?
Answer: inconclusive [activator, single point]

Question: Which Potency does the source give for CCN(CC)c1ccc(NC(=O)CSc2nc(C3CC3)nc3ccccc23)cc1C here?
Answer: active: 6.51 µM

Question: Which “activity, positive = re-replication” value does the source give for CN(Cc1ccccc1)C(=O)c1[nH]cnc1C(=O)Nc1ccon1 here?
Answer: inactive: -15.1%

Question: For O=c1cc(CN2CCN(CCO)CC2)c2cc3c(cc2o1)CCC3, which “activity, positive = re-replication” value is on record?
Answer: inactive: 1.33%

Question: Which Potency does the source give for CC(=O)CCc1ccc(OCCCCN2CCC(Cc3ccccc3)CC2)cc1 here?
Answer: inconclusive [activator, partial curve]

Question: Which Potency does the source give for OCC1(CCOc2ccccc2)CCN(C2Cc3ccccc3C2)CC1 here?
Answer: active: 18.4 µM

Question: With O=C(NCc1nc2ccccc2[nH]1)C1=C[C@H](c2coc3ccccc3c2=O)C[C@H](OCc2ccc(CO)cc2)O1 as the molecule, how does the “activity, positive = re-replication” value read?
Answer: inactive: 4.75%

Question: Which Potency does the source give for CCOC(=O)[C@H]1[C@H]2COc3ccc(OC)cc3[C@@H]2N2C(=O)c3cc(OC)c(OC)cc3NC(=O)[C@@]12C here?
Answer: inconclusive [activator, full curve, poor fit]

Question: For Cc1cc2nc(C(F)(F)F)cc(-c3cccs3)n2n1, which Potency is on record?
Answer: active: 0.92 µM

Question: With O=C(CN1C(=O)C2CC=CCC2C1=O)Nc1cc(C(F)(F)F)ccc1N1CCCC1 (centres undefined) as the molecule, how does the “activity, positive = re-replication” value read?
Answer: inactive: -1.94%

Question: For CSc1ccccc1NC(=O)COC(=O)c1ccc(-n2nc(C)cc2C)cc1, which Potency is on record?
Answer: inconclusive [activator, single point]

Question: With CCOC(=O)c1cc2c(=O)n3ccccc3nc2n(CC(C)C)c1=NC(=O)c1c(-c2c(F)cccc2Cl)noc1C as the molecule, how does the Potency read?
Answer: active: 3.26 µM

Question: Which Potency does the source give for CCOC(=O)c1ccccc1OCc1cc(/C=N/n2cnnc2)ccc1OC here?
Answer: inconclusive [activator, partial curve, poor fit]

Question: For Cc1nn2c(c1-c1ccc(Cl)cc1)N=C(c1ccco1)CC2c1ccccc1 (centres undefined), which Potency is on record?
Answer: inconclusive [activator, partial curve, poor fit]

Question: Which Potency does the source give for CCOC(=O)c1ccccc1NC(=O)C1CCN(c2ncnc3sc(C)c(C)c23)CC1 here?
Answer: inconclusive [activator, single point]

Question: Which Potency does the source give for Cc1ccc2c(CC(=O)Nc3ccc(N4CCN(C)CC4)cc3C)coc2c1 here?
Answer: inconclusive [activator, single point]
